Results from publication PMC7242078.
These are yes or no findings as the source states them, for the method shown. For some of these results: In cells and extracts the contact can be indirect. Some entries that bind do so weakly or less than the wild type. For some of these results: Tags and fused reporters may be left off the sequences shown.

Protein sequences, listed by entry. Tags and fused reporters are not part of them.
UniProt O81445: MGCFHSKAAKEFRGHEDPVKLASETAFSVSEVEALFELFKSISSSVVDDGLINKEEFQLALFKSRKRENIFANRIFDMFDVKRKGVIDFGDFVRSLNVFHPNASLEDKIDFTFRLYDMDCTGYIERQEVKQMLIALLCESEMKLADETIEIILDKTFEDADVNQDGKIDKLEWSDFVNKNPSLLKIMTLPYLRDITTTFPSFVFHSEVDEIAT
UniProt Q7FRS8: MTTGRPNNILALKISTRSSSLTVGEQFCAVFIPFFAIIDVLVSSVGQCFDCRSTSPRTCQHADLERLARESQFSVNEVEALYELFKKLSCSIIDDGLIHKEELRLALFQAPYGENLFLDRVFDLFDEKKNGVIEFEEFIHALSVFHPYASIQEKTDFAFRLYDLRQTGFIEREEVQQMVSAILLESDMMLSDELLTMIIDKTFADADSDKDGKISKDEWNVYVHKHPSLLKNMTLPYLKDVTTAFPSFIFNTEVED
UniProt Q9SUA6: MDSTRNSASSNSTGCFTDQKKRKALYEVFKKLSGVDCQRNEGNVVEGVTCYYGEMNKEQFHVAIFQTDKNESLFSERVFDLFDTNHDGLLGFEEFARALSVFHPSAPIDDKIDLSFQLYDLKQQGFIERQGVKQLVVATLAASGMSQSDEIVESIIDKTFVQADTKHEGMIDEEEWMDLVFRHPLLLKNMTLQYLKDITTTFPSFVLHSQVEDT
UniProt Q9LTB8: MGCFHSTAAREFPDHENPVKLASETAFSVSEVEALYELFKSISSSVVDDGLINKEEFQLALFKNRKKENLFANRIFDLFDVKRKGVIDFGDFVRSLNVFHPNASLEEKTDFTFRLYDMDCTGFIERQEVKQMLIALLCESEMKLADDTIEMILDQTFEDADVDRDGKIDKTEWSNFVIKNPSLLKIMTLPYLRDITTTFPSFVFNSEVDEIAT
UniProt Q9C5P6: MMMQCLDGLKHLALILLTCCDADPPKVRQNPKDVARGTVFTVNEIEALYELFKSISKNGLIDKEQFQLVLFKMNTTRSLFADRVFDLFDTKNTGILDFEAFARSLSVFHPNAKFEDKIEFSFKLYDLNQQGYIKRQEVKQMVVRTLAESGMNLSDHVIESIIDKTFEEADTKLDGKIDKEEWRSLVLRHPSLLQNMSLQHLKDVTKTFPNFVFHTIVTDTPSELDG
UniProt O81223: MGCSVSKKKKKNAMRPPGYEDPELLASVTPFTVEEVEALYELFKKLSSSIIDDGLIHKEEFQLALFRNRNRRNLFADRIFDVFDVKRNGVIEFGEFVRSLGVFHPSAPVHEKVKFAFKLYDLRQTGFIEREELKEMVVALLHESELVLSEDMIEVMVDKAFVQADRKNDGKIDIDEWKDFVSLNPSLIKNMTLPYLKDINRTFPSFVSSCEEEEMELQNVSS

Each substance was assayed against T1, CIPK8 luciferase-fragment fusion (pCAMBIA1300-cLUC, primers CIPK8-cLUC-F/R) (Arabidopsis) (UniProt Q9STV4) (assay: split reporter; Split-LUC in tobacco leaf cells; data not shown).
T1 sequence: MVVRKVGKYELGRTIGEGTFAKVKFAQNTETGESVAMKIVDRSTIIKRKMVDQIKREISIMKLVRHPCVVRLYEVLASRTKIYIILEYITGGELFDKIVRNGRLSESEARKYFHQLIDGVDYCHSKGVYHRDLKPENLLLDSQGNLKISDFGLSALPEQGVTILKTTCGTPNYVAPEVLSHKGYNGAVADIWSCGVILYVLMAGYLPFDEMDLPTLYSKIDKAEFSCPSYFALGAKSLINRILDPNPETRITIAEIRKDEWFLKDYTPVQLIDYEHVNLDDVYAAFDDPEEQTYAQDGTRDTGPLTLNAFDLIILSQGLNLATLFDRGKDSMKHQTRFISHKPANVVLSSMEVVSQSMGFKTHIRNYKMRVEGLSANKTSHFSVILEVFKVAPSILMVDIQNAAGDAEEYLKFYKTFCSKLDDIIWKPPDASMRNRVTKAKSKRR

| binding | Substance |
| --- | --- |
| binds | CBL1 in the Split-LUC assay (from UniProt O81445 1-213) |

These substances were tested against T1, CIPK8 luciferase-fragment fusion (pCAMBIA1300-cLUC, primers CIPK8-cLUC-F/R) (Arabidopsis) (assay: split reporter; Split-LUC (firefly luciferase complementation imaging) in Nicotiana benthamiana leaves, agroinfiltrated, imaged after 2 d, 10 min exposure; nLUC and cLUC fusions).

| binding | Substance |
| --- | --- |
| binds | CBL10 luciferase-fragment fusion (pCAMBIA1300-nLUC, primers CBL10-nLUC-F/R) (from UniProt Q7FRS8 1-256) |

The substances below were run against T2, CBL-interacting protein kinase 8 (pGBKT7-CIPK8) (Arabidopsis) (UniProt Q9STV4) (assay: two-hybrid; MatchMaker yeast two-hybrid system (Clontech), Y2HGold yeast co-transformed with pGBKT7-CIPK8 and pGADT7-CBLs; growth on QDO/X/A (lacking Leu, Ade, His and Trp, with 40 ug/ml X-alpha-Gal and 125 ng/ml aureobasidin A)).
T2 sequence: T1 sequence

| Substance | binding |
| --- | --- |
| Calcineurin B-like protein 1 (pGADT7-CBL1) (from UniProt O81445 1-213) | binds |
| Calcineurin B-like protein 2 (pGADT7-CBL2) (from UniProt Q8LAS7 1-226) | no binding |
| Calcineurin B-like protein 7 (pGADT7-CBL7) (from UniProt Q9SUA6 1-214) | no binding |
| Calcineurin B-like protein 9 (pGADT7-CBL9) (from UniProt Q9LTB8 1-213) | no binding |

Continued, values first:

| binding | Substance |
| --- | --- |
| no binding | Calcineurin B-like protein 3 (pGADT7-CBL3) (from UniProt Q8LEM7 1-226) |
| no binding | Calcineurin B-like protein 6 (pGADT7-CBL6) (from UniProt Q9C5P6 1-226) |
| binds | Calcineurin B-like protein 10 (pGADT7-CBL10) (from UniProt Q7FRS8 1-256) |
| no binding | SOS3, also known as Calcineurin B-like 4 (pGADT7 fusion) (from UniProt O81223 1-222) |
